Measurements published in ChEMBL document CHEMBL1201862, “PubChem BioAssay data set” (2004).
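48-hour exposure; five concentrations; linearly interpolated endpoints. GI50 = concentration required for 50% inhibition of growth.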 Active and inactive are the calls of the source. No stated cut-off is given here; in the data, active = GI50 up to about 1.1 µM and inactive = higher.

The compounds below were run on NCI-H322M (assay: NCI anticancer screen, dose series, 48 h).

| Structure (SMILES) | GI50 |
| --- | --- |
| N#C/C(=C\c1cccc(O)c1)C(N)=O | inactive: > 100 µM |
| CC1C2=C(O)CC(C)(C)CC2=NC2=C1C(=O)CC(C)(C)C2 (stereo not given) | inactive: > 100 µM |
| O=C1C(Br)=C(c2ccccc2)C(c2ccccc2)=C1c1ccccc1 | inactive: 16 µM |
| CCN(CC)CCCNc1[nH]c2ccccc2c2nc3ccc(OC)cc3c1-2 | inactive: 1.26 µM |
| CCCCCCCCCCCCCCCCCCCCCC(=O)Nc1ccn(C2OC(CO)C(O)C2O)c(=O)n1 (stereo not given) | inactive: > 100 µM |
| CC(C)Sc1nncc(/C(N)=N/O)n1 | inactive: > 100 µM |
| O=C(c1ccccc1)N1CCC(Nc2cccnc2)O1 (stereo not given) | inactive: > 100 µM |
| O=[N+]([O-])C(/C=N/Nc1ccccc1)/C=N/Nc1ccccc1 | inactive: > 100 µM |
| Cc1nc2c(N3CCCC3)nc(N3CCNCC3)nc2nc1NCc1ccccc1 | inactive: 5.27 µM |
| O=C(NCCCc1cn[nH]c(=O)n1)c1cccc2nc3ccccc3nc12 | inactive: 78 µM |
| O=C1c2ccccc2C(=O)c2c1nc1ccccc1c2-c1cncc(-c2c3c(nc4ccccc24)C(=O)c2ccccc2C3=O)c1 | inactive: 8.61 µM |
| CC1(C)N(OC2CCCCO2)C(c2ccccc2)C(c2ccccc2)=[N+]1[O-] (stereo not given) | inactive: > 100 µM |
| COc1cc2c3c(c1OC)C(=O)C=C3N(S(=O)(=O)c1ccc(C)cc1)CC2 | inactive: > 100 µM |
| CN(C)C1(N(C)C)Oc2c(c(=O)n(C)c(=O)n2C)C(c2ccc(C(F)(F)F)cc2)C1(F)F (stereo not given) | inactive: > 100 µM |
| COC(=O)CCC(=O)C(CC(=O)OC)C(=O)CCC(=O)NCCc1ccccc1 (stereo not given) | inactive: > 100 µM |
| CC1CCCC2=C1C(c1ccc(Cl)cc1)n1c(s/c(=C\c3ccc(Cl)cc3)c1=O)=N2 (stereo not given) | inactive: > 100 µM |
| COc1ccc(Oc2cccc(C3C4C(=O)N(c5ccc(C)c(Cl)c5)C(=O)C4ON3C(C(N)=O)c3ccccc3)c2)cc1 (stereo not given) | inactive: 15.5 µM |
| CCOC(=O)C1Cc2[nH]c3ccccc3c2C(C)C1C (stereo not given) | inactive: 18.8 µM |
| CCCCCCc1cc(C(=O)Nc2cccc(C(F)(F)F)c2)nc(N)n1 | inactive: > 100 µM |
| CCCCN(CCCC)CC(C(C)=O)C(c1ccccc1)c1c(O)c2ccccc2oc1=O (stereo not given) | inactive: > 100 µM |
| COc1ccc(-n2c(=O)n(-c3ccccc3)c(=O)n2-c2ccc(OC)cc2)cc1 | inactive: > 100 µM |
| COc1cccc(C=O)c1O | inactive: 44.4 µM |
| Nc1ncnc2c1ccn2C1OC2COP(=O)(O)OC2C1O (stereo not given) | active: 0.533 µM |
| Cc1ccsc1/C=N/Nc1nc2ccccc2s1 | inactive: 21.8 µM |

| Structure (SMILES) | GI50 |
| --- | --- |
| CCN1CN(c2ccccc2)C2(CCN(CC3COc4ccccc4O3)CC2)C1=O (stereo not given) | inactive: 44 µM |
| S=C(Nc1c2c(nc3ccccc13)CCCC2)Nc1c2c(nc3ccccc13)CCCC2 | inactive: > 100 µM |
| CN1C[C@@H]2CC(=O)CC[C@@H]2C[C@H]1C#N | inactive: > 100 µM |
| O=C1NC(O)n2c(=O)[nH]c(=O)n21 (stereo not given) | inactive: > 100 µM |
| COc1cc(OC)c2c(c1OC)OCC(Cc1ccc(O)cc1)C2=O (stereo not given) | inactive: > 25 µM |
| CCc1cccc(C)c1NC(=O)C1=C(C)NC(C)=C(C(=O)Nc2c(C)cccc2CC)C1c1ccc([N+](=O)[O-])cc1 | inactive: 44.9 µM |
| Clc1ncnc(Cl)c1Cl | inactive: > 100 µM |
| NC(=O)Cc1ncn(-c2ccccc2)n1 | inactive: > 100 µM |
| c1ccc(-c2c(-c3cccs3)[nH]c(-c3cccs3)c2-c2ccccn2)nc1 | inactive: 34.6 µM |
| CC(C)[C@@H](COC(C)(C)C)/N=C/N1CCc2c([nH]c3ccccc23)C1 | inactive: > 100 µM |
| CC12C/C(=C\c3ccccc3)C(=O)C3C1CCCC32 | inactive: > 100 µM |
| c1ccc(/N=C2\SC(c3ccccc3)CN2C23CC4CC(CC(C4)C2)C3)cc1 (stereo not given) | inactive: > 100 µM |
| COc1ccc(/N=N\c2c(N)nn3c(SC)c(C#N)c(N)nc23)cc1 | inactive: 11.4 µM |
| C=C1C(=O)OC2C/C(C)=C/CC/C(C)=C/CCC3(COC(C)=O)OC3CC12 (stereo not given) | inactive: 16.4 µM |
| CC(N1CCOCC1)C(O)(c1ccccc1)c1ccccn1 (stereo not given) | inactive: > 100 µM |
| COC(=O)CCC1=NOC(CC2CC(CCC(=O)OC)=NO2)C1 (stereo not given) | inactive: > 100 µM |
| C=CCC(SC)C1=C(C)C(=O)c2ccccc21 (stereo not given) | inactive: > 10 µM |
| Cc1cc(Cl)ccc1NC(=O)CCCC(=O)C1C/C(=N/O)CC/C1=N\O (stereo not given) | inactive: > 100 µM |
| COc1ccc2oc(=N)c(C(=O)Nc3ccccn3)cc2c1 | inactive: > 100 µM |
| CN(C(=O)C12C3C4C5C3C1(C(=O)O)C5C42)C(C)(C)C (stereo not given) | inactive: > 100 µM |
| O=c1[nH]nc2ccccc2c1Cc1ccccc1 | inactive: > 100 µM |
| Cc1ccc(C(=O)Cc2nc3ncccc3[nH]c2=O)cc1 | inactive: 44.6 µM |
| CC(Oc1ccc(OCC2CCCCC2)cc1)C(N)=O (stereo not given) | inactive: > 100 µM |
| CCCCCCCCCCn1cccc1/C=C/c1ccc(/C=C/c2cccn2CCCCCCCCCC)cc1 | inactive: > 100 µM |

| Structure (SMILES) | GI50 |
| --- | --- |
| COC(=O)Cc1cc(=O)oc2c1C(=O)CCC2 | inactive: > 100 µM |
| O=C1CCC(=O)N1CNc1cccc(NCN2C(=O)CCC2=O)c1 | inactive: > 100 µM |
| O=C(Nc1cccc(Cl)c1)c1cc2cc(/N=N/c3ccc(Br)cc3)ccc2oc1=O | inactive: > 100 µM |
| CCOC(=O)CNC(=O)C(CSC(=O)N(C)O)NC(=O)CCC(N)C(=O)O (stereo not given) | inactive: 458 µM |
| COc1ccc(/C=C2\CC3C4CC=C5C[C@@H](N6CCCC6)CC[C@]5(C)C4CC[C@]3(C)[C@H]2O)cc1OC (stereo not given in full) | inactive: 9.33 µM |
| COC(=O)[C@@H]1CN(C(=O)c2ccccc2)C(=O)N1C(=O)OCc1ccccc1 | inactive: > 100 µM |
| CC(=O)N(CCc1ccccc1)C(C)(C#N)c1ccccc1 (stereo not given) | inactive: > 100 µM |
| O=C(/C=C/c1ccc(-c2ccccc2[N+](=O)[O-])o1)NCc1ccc(C(=O)NCCc2ccccc2)cc1 | inactive: > 100 µM |
| Cc1ccc2c(n1)C(=O)c1ccccc1C2=O | inactive: 20.3 µM |
| COc1cc(/C=C2/SC(c3ccccc3)N(c3cc(Cl)ccc3Cl)C2=O)cc(OC)c1OC (stereo not given) | inactive: > 100 µM |
| O=C(NC(=O)c1ccccc1)OC(c1ccccc1)C1CO1 (stereo not given) | inactive: > 100 µM |
| COc1ccc(C(C)NNC(=O)c2ccncc2)cc1F (stereo not given) | inactive: > 100 µM |
| COc1c(-c2ccc3c(c2)OCO3)oc2cc(O)cc(O)c2c1=O | inactive: 36.6 µM |
| CCc1cccc(CC)c1NC(=S)NC(=O)c1ccc(Br)cc1 | inactive: 36.6 µM |
| O=C1CC[C@@]2(O)[C@H]3Cc4ccc(-c5cccc(O)c5)c5c4[C@@]2(CCN3CC2CC2)[C@H]1O5 | inactive: 1.5 µM |
| COc1cc(C2c3cc4c(cc3OC(O)C2C)OCO4)cc(OC)c1O (stereo not given) | inactive: 29.4 µM |
| CC(=O)O[C@@]1(C)[C@@H](C)C(=O)O[C@@H]2CCN3CC=C(COC(=O)[C@]1(C)O)[C@H]23 | inactive: > 100 µM |
| COc1ccc(C2=NN(c3nsc4ccccc34)C(=O)CC2)cc1 | inactive: > 100 µM |
| CCOc1cc(NC(C)=O)ccc1C(=O)NNS(=O)(=O)c1ccc(NC(C)=O)cc1 | inactive: 59.7 µM |
| N#C/C(N)=C(C#N)/N=C/Nc1ccccc1N | inactive: > 100 µM |
| O/N=C(\c1ccccc1)N1CCCCC1 | inactive: > 100 µM |
| COc1ccc2c(O)c(S(=O)(=O)c3ccc(C)cc3)c(=O)oc2c1OC | inactive: > 100 µM |
| O[C@@H]1[C@H](OC2c3ccccc3-c3ccccc32)[C@H](OCc2ccccc2)[C@@H]2OC[C@H]1O2 | inactive: > 100 µM |
| NC(=S)/N=C(/c1nc2ccc(Cl)cc2nc1O)C(O)c1ccccc1Cl (stereo not given) | inactive: > 100 µM |

| Structure (SMILES) | GI50 |
| --- | --- |
| COc1cc2c(cc1OCCCOc1cc3c(cc1OC)C(=O)N1CCC[C@H]1CN3)N=C[C@@H]1CCCN1C2=O | active: 0.237 µM |
| COc1cccc(/C=C\c2ccnc3ccccc23)c1 | inactive: > 10 µM |
| [O-][n+]1c2c([n+]([O-])c3ccccc31)-c1cccc3cccc-2c13 | inactive: > 100 µM |
| CCOC(=O)/C=C/C(=O)O/C=C/[N+](=O)[O-] | inactive: > 100 µM |
| COc1cccc(/C=N/n2c(Cc3ccccc3)n[nH]c2=O)c1 | inactive: > 100 µM |
| COC(c1ccccc1)C(c1ccccc1)N1CCOCC1 (stereo not given) | inactive: > 100 µM |
| CC1(CC(=O)O)OC2CCCCCC2O1.NCc1ccccc1 (stereo not given) | inactive: 50.8 µM |
| CC1(c2cccc(C3CC4(CCC3=O)OCCCCO4)c2)OCCO1 (stereo not given) | inactive: > 100 µM |
| CS/C(=N/C#N)NCCc1c[nH]c2ccccc12 | inactive: > 100 µM |
| CCSC1=N/C(=C\c2ccc(N(C)C)cc2)C(Cl)=N1 | inactive: > 100 µM |
| COC(=O)c1cc(C)n2c1CS[C@@H]2c1ccccc1 | inactive: 51.6 µM |
| COc1ccc(-c2sc(Br)c3c2C(=O)C2OC(=O)NC32)cc1OC (stereo not given) | inactive: > 100 µM |
| O=C(c1ccncc1)n1nc(-c2ccccc2)c(/N=N/c2ccccc2[N+](=O)[O-])c1-c1ccccc1 | inactive: 25.7 µM |
| Cc1cc2c([nH]c3ccccc32)c2c1OC(C)(C)C1C3CC(C)(C)Oc4c(C)cc5c6ccccc6n(c5c43)C21 (stereo not given) | inactive: 85.1 µM |
| C[N+](C)(C)CCOP(=O)(O)OP(=O)([O-])OCC1CCC(n2ccc(N)nc2=O)O1 (stereo not given) | inactive: > 100 µM |
| O=C1C2C3C=C4c5ccccc5N(c5ccccc5)C4(C2C(=O)N1c1ccc([N+](=O)[O-])cc1)[C@H]1C(=O)N(c2ccc([N+](=O)[O-])cc2)C(=O)[C@@H]31 (stereo not given in full) | inactive: > 100 µM |
| COC(=O)[C@]1(c2cc3ccccc3[nH]2)CC2CNC1C1OC(C)(C)OC21 (stereo not given in full) | inactive: > 100 µM |
| COC(=O)C(CSSC[C@H](N/C(C)=C/C(C)=O)C(=O)OC)N/C(C)=C/C(C)=O (stereo not given in full) | inactive: 25.6 µM |
| CCN1CCN(c2nc3ccccc3c3c2CCOc2ccccc2-3)CC1 | inactive: > 45.4 µM |
| O=c1c(Cc2ccccc2)c(-c2ccccc2)[nH]n1C1=NCCN1 | inactive: 35.9 µM |
| O=CC(NC(=O)N(CCCl)N=O)C(O)C(O)C(O)CO (stereo not given) | inactive: 1240 µM |
| O=[N+]([O-])c1cc2oc(COc3ccccc3)nc2cc1Cl | inactive: 35.6 µM |
| Cc1cnc2nc(-c3cccc4ccccc34)cc(O)c2c1 | active: 0.00399 µM |
